# Assay results from patent publication US11207320B2, “Compositions and methods for cancer expressing PDE3A or SLFN12” (The Broad Institute, Inc., priority 2015, dated 2021).
# This continues a long series; more values of the same kind are listed elsewhere.
# System: 766 cancer cell lines
# Test: Large-scale cell-line viability measurements (766 cancer cell lines, 72 h, AUC)
# Assay type: cell-based, human
# Details: 72 hours
# Experimental: Cell lines were treated for 72 hours with concentrations ranging from 66.4 μM-2 nM in 2-fold step dilutions.
# To characterize cellular sensitivity to DNMDP further, 766 genomically characterized cancer cell lines were screened for DMNDP sensitivity at concentrations ranging from 66.4 μM to 2 nM in 2-fold dilution steps for 72 hours. From these cell lines, 22 cell lines were categorized as sensitive with a robust Z-score lower than −4, which represented multiple lineages including multiple melanoma cell lines, amongst others (Table 1).
# The sensitivity of […] cancer cell lines (CCLs) was measured drawn from 23 different lineages to DNMDP. Each cell line was plated in its preferred media in white opaque 1536-plates at a density of 500 cells/well. After incubating overnight, DNMDP was added by acoustic transfer at 16 concentrations ranging from 66.4 μM-2 nM in 2-fold steps in duplicate (Labcyte Echo 555, Labcyte Inc., Sunnyvale, Calif.). After 72 hours treatment, cellular ATP levels were measured as a surrogate for viability (CELLTITERGLO®, Promega Corporation, Madison, Wis.) according to manufacturer's protocols using a ViewLux Microplate Imager (PerkinElmer, Waltham, Mass.) and normalized to background (media-only) and vehicle (DMSO)-treated control wells.
# Concentration response curves were fit using nonlinear fits to 2- or 3-parameter sigmoid functions through all 16 concentrations with the low-concentration asymptote set to the DMSO-normalized value, and an optimal 8-point dose curve spanning the range of compound-sensitivity was identified. The area under the 8-point dose curve (AUC) was computed by numeric integration as a metric for sensitivity for further analysis. Similar sensitivity measurements have been obtained for a collection of 480 other compounds, enabling analyses that identify cell lines responding uniquely to DNMDP (see Broad Institute Cancer Therapeutics Response Portal, a dataset to identify comprehensively relationships between genetic and lineage features of human cancer cell lines and small-molecule sensitivities for complete list of compounds).
# [1] = HEL (HAEMATOPOIETIC AND LYMPHOID TISSUE)
# [2] = HS611T (HAEMATOPOIETIC AND LYMPHOID TISSUE)
# [3] = JJN3 (HAEMATOPOIETIC AND LYMPHOID TISSUE)
# [4] = JURKAT (HAEMATOPOIETIC AND LYMPHOID TISSUE)
# [5] = KARPAS299 (HAEMATOPOIETIC AND LYMPHOID TISSUE)
# [6] = KASUMI2 (HAEMATOPOIETIC AND LYMPHOID TISSUE)
# [7] = KHM1B (HAEMATOPOIETIC AND LYMPHOID TISSUE)
smiles,measurement,setting,value
"CCN(CC)c1ccc(C2=NNC(=O)CC2C)cc1[N+](=O)[O-] (centres unmarked) [DNMDP, 6-(4-(diethylamino)-3-nitrophenyl)-5-methyl-4,5-dihydropyridazin-3(2H)-one]",Robust Z-score,HCC15 (LUNG),−0.2609
same,DNMDP AUC,HCC38 (BREAST),6.3361
same,Robust Z-score,HCC38 (BREAST),−0.3134
same,DNMDP AUC,HCC44 (LUNG),6.4794
same,Robust Z-score,HCC44 (LUNG),−0.163
same,DNMDP AUC,HCC1143 (BREAST),6.3611
same,Robust Z-score,HCC1143 (BREAST),−0.2871
same,DNMDP AUC,HCC4006 (LUNG),6.2335
same,Robust Z-score,HCC4006 (LUNG),−0.4211
same,DNMDP AUC,HCT8 (LARGE INTESTINE),6.3733
same,Robust Z-score,HCT8 (LARGE INTESTINE),−0.2743
same,DNMDP AUC,HCT15 (LARGE INTESTINE),6.4918
same,Robust Z-score,HCT15 (LARGE INTESTINE),−0.1499
same,DNMDP AUC,[1],0.5796
same,Robust Z-score,[1],−6.356
same,DNMDP AUC,HLF (LIVER),6.5042
same,Robust Z-score,HLF (LIVER),−0.1369
same,DNMDP AUC,HMCB (SKIN),1.9762
same,Robust Z-score,HMCB (SKIN),−4.89
same,DNMDP AUC,HOS (BONE),6.5069
same,Robust Z-score,HOS (BONE),−0.1341
same,DNMDP AUC,HS294T (SKIN),6.5258
same,Robust Z-score,HS294T (SKIN),−0.1143
same,DNMDP AUC,HS578T (BREAST),2.8012
same,Robust Z-score,HS578T (BREAST),−4.024
same,DNMDP AUC,[2],6.4224
same,Robust Z-score,[2],−0.2228
same,DNMDP AUC,HS729 (SOFT TISSUE),4.6518
same,Robust Z-score,HS729 (SOFT TISSUE),−2.081
same,DNMDP AUC,HS766T (PANCREAS),6.3727
same,Robust Z-score,HS766T (PANCREAS),−0.275
same,DNMDP AUC,HS839T (SKIN),5.5232
same,Robust Z-score,HS839T (SKIN),−1.167
same,DNMDP AUC,HS852T (SKIN),4.7511
same,Robust Z-score,HS852T (SKIN),−1.977
same,DNMDP AUC,HS936T (SKIN),6.385
same,Robust Z-score,HS936T (SKIN),−0.262
same,DNMDP AUC,HS940T (SKIN),5.1573
same,Robust Z-score,HS940T (SKIN),−1.551
same,DNMDP AUC,HT1197 (URINARY TRACT),3.0929
same,Robust Z-score,HT1197 (URINARY TRACT),−3.718
same,DNMDP AUC,HUH28 (BILIARY TRACT),6.5145
same,Robust Z-score,HUH28 (BILIARY TRACT),−0.1261
same,DNMDP AUC,IGR1 (SKIN),4.8613
same,Robust Z-score,IGR1 (SKIN),−1.861
same,DNMDP AUC,IGR37 (SKIN),0.4115
same,Robust Z-score,IGR37 (SKIN),−6.532
same,DNMDP AUC,IM95 (STOMACH),6.4877
same,Robust Z-score,IM95 (STOMACH),−0.1542
same,DNMDP AUC,ISTMES1 (PLEURA),6.2389
same,Robust Z-score,ISTMES1 (PLEURA),−0.4154
same,DNMDP AUC,J82 (URINARY TRACT),6.3718
same,Robust Z-score,J82 (URINARY TRACT),−0.2759
same,DNMDP AUC,JHH5 (LIVER),6.4703
same,Robust Z-score,JHH5 (LIVER),−0.1725
same,DNMDP AUC,JHOM1 (OVARY),2.7006
same,Robust Z-score,JHOM1 (OVARY),−4.129
same,DNMDP AUC,JHOS2 (OVARY),4.8254
same,Robust Z-score,JHOS2 (OVARY),−1.899
same,DNMDP AUC,JHUEM1 (ENDOMETRIUM),0.5347
same,Robust Z-score,JHUEM1 (ENDOMETRIUM),−6.403
same,DNMDP AUC,JHUEM3 (ENDOMETRIUM),4.93
same,Robust Z-score,JHUEM3 (ENDOMETRIUM),−1.789
same,DNMDP AUC,JIMT1 (BREAST),6.3087
same,Robust Z-score,JIMT1 (BREAST),−0.3421
same,DNMDP AUC,[3],6.4585
same,Robust Z-score,[3],−0.1849
same,DNMDP AUC,JMSU1 (URINARY TRACT),6.3317
same,Robust Z-score,JMSU1 (URINARY TRACT),−0.318
same,DNMDP AUC,[4],6.4524
same,Robust Z-score,[4],−0.1913
same,DNMDP AUC,K029AX (SKIN),2.9362
same,Robust Z-score,K029AX (SKIN),−3.882
same,DNMDP AUC,KALS1 (CENTRAL NERVOUS SYSTEM),6.3098
same,Robust Z-score,KALS1 (CENTRAL NERVOUS SYSTEM),−0.341
same,DNMDP AUC,[5],6.4827
same,Robust Z-score,[5],−0.1595
same,DNMDP AUC,[6],6.2904
same,Robust Z-score,[6],−0.3613
same,DNMDP AUC,KATOIII (STOMACH),6.3642
same,Robust Z-score,KATOIII (STOMACH),−0.2839
same,DNMDP AUC,[7],6.2859
same,Robust Z-score,[7],−0.3661
